# This is one part of the list. One pool of 16,384 single-stranded DNAs met each Rep nickase domain in vitro at 3 µM enzyme and 37 °C for 1 h; the strands have 90 letters, of which the middle is given. A value is the log2 ratio of uncut reads to the pool without enzyme; more negative means more cut, near 0 not cut, and no call is made. Reads are scaled to the total; values above 0 arise when much of the pool is cut.
# Legend:
# Assay in all cases: uncleaved DNA left, log2 of reads against the no-enzyme library (log2 ratio); higher = less cleavage (more negative = more Rep cleavage of the k-mer); sequences stand for … in CTCGTCCG…ACCGGAGA
# [1] = test system: T1, Rep nickase domain of Muscovy duck circovirus
# T1 sequence (residues 1-111, tag not shown): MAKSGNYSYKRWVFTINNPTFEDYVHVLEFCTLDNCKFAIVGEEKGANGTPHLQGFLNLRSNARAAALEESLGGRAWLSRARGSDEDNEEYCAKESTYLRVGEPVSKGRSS
# Experimental: (§1)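 A pool of 90-nt single-stranded DNAs with seven random bases just before the constant AC of the nick site (name = the seven bases) was cut by 3 µM recombinant His6-SUMO-tagged Rep nickase domain (300 nM DNA, 50 mM HEPES pH 8.0, 50 mM NaCl, 1 mM MnCl2, 1 h, 37 °C, three replicates). Uncut DNA was amplified and sequenced.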
# [2] = test system: T2, Rep nickase domain of banana bunchy top virus
# T2 sequence (residues 1-94, tag not shown): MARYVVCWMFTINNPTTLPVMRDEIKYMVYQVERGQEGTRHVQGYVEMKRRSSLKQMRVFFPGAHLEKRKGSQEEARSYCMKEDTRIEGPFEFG
# Experimental: as §1
# [3] = test system: T3, Rep nickase domain of cabbage leaf curl virus
# T3 sequence (residues 1-116, tag not shown): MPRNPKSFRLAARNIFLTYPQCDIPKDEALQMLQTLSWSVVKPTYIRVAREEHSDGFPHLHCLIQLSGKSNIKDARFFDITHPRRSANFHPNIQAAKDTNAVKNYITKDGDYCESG
# Experimental: as §1
# [4] = test system: T4, Rep nickase domain of chickpea chlorotic dwarf virus
# T4 sequence (residues 1-124, tag not shown): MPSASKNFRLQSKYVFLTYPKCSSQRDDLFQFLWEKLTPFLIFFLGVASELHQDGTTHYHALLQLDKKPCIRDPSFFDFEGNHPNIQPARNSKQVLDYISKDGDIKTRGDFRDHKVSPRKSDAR
# Experimental: as §1
# [5] = test system: T5, Rep nickase domain of faba bean necrotic yellows virus
# T5 sequence (residues 1-98, tag not shown): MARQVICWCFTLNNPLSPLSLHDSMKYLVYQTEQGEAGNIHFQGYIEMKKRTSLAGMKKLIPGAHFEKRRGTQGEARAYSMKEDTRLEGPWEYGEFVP
# Experimental: as §1
# [6] = test system: T6, Rep nickase domain of maize striate mosaic virus
# T6 sequence (residues 1-117, tag not shown): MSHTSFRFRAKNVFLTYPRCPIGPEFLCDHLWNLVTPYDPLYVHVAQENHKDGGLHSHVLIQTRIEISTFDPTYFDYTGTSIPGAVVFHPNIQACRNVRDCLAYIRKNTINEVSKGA
# Experimental: as §1
# [7] = test system: T7, Rep nickase domain of porcine circovirus 2
# T7 sequence (residues 2-116, tag not shown): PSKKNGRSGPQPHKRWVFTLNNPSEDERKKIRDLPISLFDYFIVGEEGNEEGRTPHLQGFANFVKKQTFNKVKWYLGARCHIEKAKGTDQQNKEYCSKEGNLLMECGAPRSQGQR
# Experimental: as §1
# [8] = test system: T8, Rep nickase domain of tomato golden mosaic virus
# T8 sequence (residues 1-124, tag not shown): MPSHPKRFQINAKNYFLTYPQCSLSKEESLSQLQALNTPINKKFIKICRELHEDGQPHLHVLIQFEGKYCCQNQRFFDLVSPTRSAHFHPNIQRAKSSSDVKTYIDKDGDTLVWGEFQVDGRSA
# Experimental: as §1
# [9] = test system: T9, Rep nickase domain of tomato yellow leaf curl virus
# T9 sequence (residues 1-136, tag not shown): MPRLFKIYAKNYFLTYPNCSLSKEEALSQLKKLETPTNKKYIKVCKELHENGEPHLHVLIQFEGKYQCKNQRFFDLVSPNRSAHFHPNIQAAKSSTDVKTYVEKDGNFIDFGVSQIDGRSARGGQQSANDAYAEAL
# Experimental: as §1
# [10] = test system: T10, Rep nickase domain of wheat dwarf virus
# T10 sequence (residues 1-137, tag not shown): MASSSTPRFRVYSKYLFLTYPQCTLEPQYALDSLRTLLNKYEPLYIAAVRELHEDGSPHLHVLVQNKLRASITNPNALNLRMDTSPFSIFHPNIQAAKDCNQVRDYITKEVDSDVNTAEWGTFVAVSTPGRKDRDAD
# Experimental: as §1
Sequence,uncleaved DNA left (log2) [1],uncleaved DNA left (log2) [2],uncleaved DNA left (log2) [3],uncleaved DNA left (log2) [4],uncleaved DNA left (log2) [5],uncleaved DNA left (log2) [6],uncleaved DNA left (log2) [7],uncleaved DNA left (log2) [8],uncleaved DNA left (log2) [9],uncleaved DNA left (log2) [10]
GGATAAG,0.116,0.113,-0.127,0.215,0.0152,-0.302,0.265,0.0525,0.0858,0.114
AAACTTT,0.00351,-0.0264,-2.28,-2.96,0.0149,-1.2,-1.55,-0.286,0.0507,-1.23
ATAATTG,0.0954,0.0982,-0.531,-0.52,0.0713,-1.27,0.082,0.0576,-0.0243,-0.0658
TGGCTGA,0.209,0.281,0.361,1.14,0.115,1.76,0.277,0.129,0.205,0.259
ATAAAAG,0.138,0.0853,-0.687,-0.308,0.0416,-0.975,0.266,0.0779,0.0659,0.0497
AAGCCCT,-0.0292,0.0188,-0.0115,-1.75,-0.0547,0.204,-2.03,-0.143,-0.0937,-0.137
TTGACCC,-0.0577,0.0434,0.249,0.557,-0.0499,0.415,-0.129,-0.0683,-0.0638,-0.051
ACGTAAA,0.0875,0.0949,-0.135,0.0994,0.097,-0.599,-0.00763,0.0512,-0.0988,-0.0349
AAAACCA,-0.0892,-0.0575,-0.213,-2.5,-0.023,-0.504,-0.464,0.0125,-0.0727,-0.0479
CACTTGA,-0.0868,-0.0392,-0.37,-0.934,-0.0602,-1.04,-0.539,-0.00315,-0.0825,-0.0313
GCAATAG,-0.019,-0.0115,-0.752,-0.454,0.031,-1.16,0.0928,-0.00196,-0.0181,-0.131
GGGTATT,-0.105,0.0782,0.765,1.94,-0.158,2.24,-2.39,-0.107,0.0748,0.0624
CTTAAAC,0.00059,-0.0341,-0.0649,-0.566,-0.0641,-0.712,-0.00198,-0.033,-0.142,-0.0294
GTCTAGT,-0.144,0.0857,0.195,0.698,4.11e-05,1.66,-0.656,0.173,0.147,0.0616
TTTTAAT,-3.42,-0.419,0.0868,-1.12,0.138,-0.00341,-3.28,0.0367,0.069,-0.118
ACAAATT,-0.071,0.00236,-0.258,-2.47,0.00755,-0.752,-0.0765,0.0434,-0.043,-0.0415
GAGGACC,0.0322,0.109,0.717,1.78,-0.0615,1.94,0.217,-0.0194,0.05,0.189
CTCACGA,0.0254,0.082,-0.0858,-0.39,-0.0678,-0.809,0.115,-0.0337,-0.00628,-0.0776
ACGAAAA,0.0321,0.148,-0.0319,0.17,0.0994,-0.552,0.196,0.0724,-0.0719,0.00439
GCTCGAC,0.0416,-0.0785,0.102,0.486,0.00418,0.29,-0.0272,-0.0429,-0.0289,-0.0411
CCCTTCC,-0.0633,-0.0581,0.0518,-0.197,0.0142,-0.487,-0.0616,-0.148,-0.107,0.0976
CTTGAAC,0.0329,-0.115,0.00616,-0.464,-0.0531,-0.757,-0.0331,-0.0449,-0.13,-0.0152
TCACTCG,0.031,-0.00885,-0.817,-0.55,-0.0657,-1.17,0.0405,-0.0179,-0.151,-0.143
TGGCCCA,-0.125,-0.00436,0.295,0.314,-0.107,0.768,-0.0641,-0.0844,0.0354,0.0565
CGAAGGC,0.0389,-0.0594,0.0794,0.108,-0.0422,-0.428,0.16,0.113,0.00416,0.0663
CGCAAAT,-0.0112,0.151,0.0278,-0.345,0.022,-0.31,-0.441,-0.107,-0.0985,0.00708
GTGTCGG,0.0316,-0.0104,0.398,1.2,0.0339,1.65,0.0471,0.131,-0.0106,0.0279
ACAATTA,-0.0158,-0.0244,-0.183,-1.71,0.0967,-0.672,0.0167,0.215,-0.0169,-0.101
GACACGC,-0.0554,-0.0394,-0.195,-0.0384,0.0392,-0.496,0.00729,-0.0649,-0.0717,-0.00327
GACTTAG,0.161,0.11,-0.476,-0.453,0.0559,-0.92,0.113,0.056,0.0238,0.0641

# — the supplement of paper PMC7826260
